A word on the koff: it is the first-order rate constant of dissociation. Low readings indicate slow dissociation, high ones fast dissociation. Usually kon stands for the second-order rate constant of association. A high value points to fast association.

The test addresses T1, TIGIT (T cell immunoreceptor with Ig and ITIM domains) (human, UniProt Q495A1 22-141, limits assumed).
T1 construct: also called hTIGIT; human TIGIT
T1 sequence (looked up): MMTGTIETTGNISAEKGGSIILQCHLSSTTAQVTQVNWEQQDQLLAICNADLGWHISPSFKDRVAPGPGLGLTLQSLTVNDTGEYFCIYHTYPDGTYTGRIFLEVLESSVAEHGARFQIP
Kind of test: SPR, VHH-Fc.

B1: TIGIT-30-5 VHH-Fc (Fc fusion)
chain: EVQLVESGGGLVQAGGSLRLSCAASGGTFRNYGMGWFRQAPGKERELVAAISWSGVSTIYADSVKGRFTISADNAKNTVYLQMNSLKPEDTAVYYCASSPYGPLYRSTHYYDWGQGTQVTVSSGGGGS[skipping human IgG1 Fc with C220S (EU numbers)]
In turn, B1 gave a koff of 1 s⁻¹ and a kon of 1e+09 M⁻¹ s⁻¹.

(Values after US20220307010A1 (TWIST BIOSCIENCE, published 2022).)
